# Data published in paper PMC4518479, “Rad51 Paralogs Remodel Pre-synaptic Rad51 Filaments to Stimulate Homologous Recombination” (Cell, 2015).
# Where a chain is given by its changes, count along the chain named. Names may count otherwise. No constants are given. Whether binding was seen depends on the method and setting. For part of these data: Binding seen in cells or lysates may run through a third protein. Some entries that bind do so weakly or less than the wild type. For part of these data: Where a sequence is shown, tags or fusion partners need not be part of it.
# B1: RFS-1 (yeast two-hybrid fusion) (protein, UniProt P34348 1-245)
# chain: MDPSENVFKYETAYDLLVRLGAERLFLRTCLSILDPVLELHPGKCYEIDGDLGVGKTQICYSFAAKFLQTKKTAKMGWIGATPLRTDHLLLHIEHFGNQTNEDILDRIVCKRVEKIAELQDSLTRFLDTINLQLVIVENIDAILHDTVYHKEMGRSMQSDVVERIRKLTKLEITVILTNHITHWRGYPAPALGAFWSSQINNRFFIEKRNDDSDIRIVSAMKGEQDDGMNRIEFKIGDRGLKAVE
# B2: RFS-1/RIP-1 complex (complex, UniProt P34348 1-245; Q21621 1-209)
# chain 1: B1 chain
# chain 2: MSESCNSLTVVFTDSPKIDDHLFAKAIRWADQNPDDTIFWARRKALERIPEIDVEFSMKAGALRRIRFGYSSKKLLQGCIDIALKASIGSEVAAIFCSMSIPQDCPELGCLLAALANFCNVDDGRAVVVIDLRDDNDDEKQEGVEESDPFENANFLEEEIVENPKELSNEPRETQTQEEFLEKLKRVASIYTKNVLLFDGNEEKFSNCF
# B3: RFS-1(K56A)/RIP-1 complex (complex, UniProt P34348 1-245; Q21621 1-209)
# chain 1: B1 chain with K56A
# chain 2: B2 chain 2
# B4: RFS-1(E138A)/RIP-1 complex (complex, UniProt P34348 1-245; Q21621 1-209)
# chain 1: B1 chain with E138A
# chain 2: B2 chain 2
# B5: RAD-51 (yeast two-hybrid fusion) (protein, UniProt Q95Q25 1-395)
# chain: MGQSWGYEGIAKRSLCTHKWLYNLNLHSINLFLPIESKMSAQASRQKKSDQEQRAADQALLNAAIEDNAMEQDENFTVIDKLESSGISSGDISKLKEAGYYTYESLAFTTRRELRNVKGISDQKAEKIMKEAMKFVQMGFTTGAEVHVKRSQLVQIRTGSASLDRLLGGGIETGSITEVYGEYRTGKTQLCHSLAVLCQLPIDMGGGEGKCMYIDTNATFRPERIIAIAQRYNMDSAHVLENIAVARAYNSEHLMALIIRAGAMMSESRYAVVIVDCATAHFRNEYTGRGDLAERQMKLSAFLKCLAKLADEYGVAVIITNQVVAQVDGGASMFQADAKKPIGGHIIAHMSTTRLYLRKGKGENRVAKMVQSPNLPEAEATYSITNHGIEDARED
# B6: RIP-1 co-expressed on a Ura-selectable plasmid in the RFS-1/RAD-51 two-hybrid strains (protein, UniProt Q21621 1-209)
# chain: B2 chain 2
# B7: C. elegans RFS-1 expressed in human 293T cells (protein, UniProt P34348 1-245)
# chain: B1 chain
# B8: RFS-1 co-expressed with RIP-1 in budding yeast (natural protein, C. elegans, UniProt P34348 1-245, looked up)
# chain: B1 chain
# notes: RFS-1 of C. elegans; see Supplemental Experimental Procedures; also called recombinant RFS-1; source: budding yeast, co-expressed with RIP-1, in extract; co-purified by FLAG immunoprecipitation
# B9: RFS-1 K56A (yeast two-hybrid fusion) (protein, UniProt P34348 1-245)
# chain: B1 chain with K56A
# B10: RFS-1 E138A (yeast two-hybrid fusion) (protein, UniProt P34348 1-245)
# chain: B1 chain with E138A
# B11: RFS-1(K56A) co-expressed with RIP-1 in budding yeast (protein, UniProt P34348 1-245)
# chain: B1 chain with K56A
# B12: RFS-1(E138A) co-expressed with RIP-1 in budding yeast (protein, UniProt P34348 1-245)
# chain: B1 chain with E138A
# B13: RFS-1 V135E (yeast two-hybrid fusion) (protein, UniProt P34348 1-245)
# chain: B1 chain with V135E
# Experiments:
# [1] = molecular target: T1, RIP-1 (RFS-1 interacting protein; yeast two-hybrid fusion) (C. elegans) (UniProt Q21621); test: two-hybrid; reciprocal yeast two-hybrid; read-out beta-galactosidase expression and survival on 3-aminotriazole (3-AT) without histidine
# T1 sequence: B2 chain 2
# [2] = molecular target: T2, RIP-1 V128E (yeast two-hybrid fusion) (C. elegans) (UniProt Q21621); test: as above
# T2 sequence: B2 chain 2 with V128E
# [3] = molecular target: T3, RAD-51 (purified, as RAD-51-ssDNA filament) (C. elegans) (UniProt Q95Q25); test: native gel or EMSA; immuno-shift: complexes of RAD-51 and RFS-1/RIP-1 on fluorescently labeled 60-mer ssDNA incubated with anti-FLAG antibody (5 min), agarose gel; both purified
# T3 sequence: B5 chain
# [4] = molecular target: T3, RAD-51 (purified, as RAD-51-ssDNA filament) (C. elegans); test: native gel or EMSA; RAD-51 and RFS-1/RIP-1 on 60-mer ssDNA with ATP; resolved by native PAGE, or crosslinked with 0.25% glutaraldehyde and resolved in agarose gels; both purified
# [5] = molecular target: T3, RAD-51 (purified, as RAD-51-ssDNA filament) (C. elegans); test: immuno-gold electron microscopy; RAD-51, RFS-1/RIP-1 and linearized PhiX ssDNA (10 min), then anti-FLAG antibody conjugated to 20-nm gold particles (30 min), uranyl acetate stain; both purified
# [6] = molecular target: T4, RFS-1 (yeast two-hybrid fusion) (C. elegans) (UniProt P34348); test: two-hybrid; reciprocal yeast two-hybrid; read-out beta-galactosidase expression and survival on 3-aminotriazole (3-AT) without histidine
# T4 sequence: B1 chain
# [7] = molecular target: T4, RFS-1 (yeast two-hybrid fusion) (C. elegans); test: two-hybrid; DB-RFS-1 / AD-RAD-51 two-hybrid strains with RIP-1 co-expressed on a Ura-selectable plasmid; beta-galactosidase and 3-AT read-out
# [8] = molecular target: T5, C. elegans RIP-1 expressed in human 293T cells (C. elegans) (UniProt Q21621); test: pull-down; GST pull-downs of C. elegans RFS-1 and RIP-1 expressed in human 293T cells
# T5 sequence: B2 chain 2
# [9] = molecular target: T6, FLAG-tagged RIP-1 co-expressed with RFS-1 in budding yeast (C. elegans) (UniProt Q21621); test: co-IP; FLAG immunoprecipitation from budding yeast cells co-expressing RFS-1 and FLAG-tagged RIP-1; eluates stained with Instant Blue, Western blots
# T6 sequence: B2 chain 2
binder,measurement,setting,value
B1,binding,[1],binds
same,binding,[2],no binding
B2,binding,[3],binds
same,binding,[4],binds
same,binding,[5],binds
B3,binding,[4],binds
B4,binding,[4],binds
B5,binding,[6],binds
same,binding,[1],no binding
same,binding,[7],binds
B6,binding,[7],binds
B7,binding,[8],binds
B8,binding,[9],binds
B9,binding,[1],binds
B10,binding,[1],binds
B11,binding,[9],binds
B12,binding,[9],binds
B13,binding,[1],no binding
